This note sets out measurements from the supplement of paper PMC12355420.

Counter-ions that a name gives are not always drawn. The list shows a part of the results. Single values are uncertain, as repeats are few or missing.
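Also: primary screen of an FDA-approved drug library in HeLa reporter cells in 96-well format, CellMask signal normalized to DMSO-treated wells set as 1, under 0.5 deemed highly cytotoxic.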

The assay has as its system HeLa VPS33A reporter cells. Put plainly: relative cell viability (CellMask signal) vs DMSO (fraction of DMSO); HeLa model of a glycosaminoglycan (GAG) storage disease; KI is knock-in and KO knock-out; SDC1 is syndecan 1; higher = less cytotoxic. The conditions noted are these: 50 µM; 24 h.
Compound `CO[C@@H]1[C@H](OC(=O)/C=C/C=C/C=C/C=C/C(=O)O)CC[C@]2(CO2)[C@H]1[C@@]1(C)O[C@@H]1CC=C(C)C` [Fumagillin] gave a relative cell viability of 0.0241.
Then `C[C@H]1O[C@@H](O[C@H]2CC[C@@]3(C)[C@@H](CC[C@]4(C)[C@@H]3C=C[C@]35OC[C@@]6(CCC(C)(C)C[C@H]63)[C@@H](O)C[C@]54C)[C@]2(C)CO)[C@H](O)[C@@H](O[C@@H]2O[C@H](CO)[C@@H](O)[C@H](O)[C@H]2O)[C@H]1O` [Saikosaponin A], with 0.00636.
Under `CO[C@H]1C[C@@H]2CC[C@@H](C)[C@@](O)(O2)C(=O)C(=O)N2CCCC[C@H]2C(=O)O[C@H]([C@H](C)C[C@@H]2CC[C@@H](OP(C)(C)=O)[C@H](OC)C2)CC(=O)[C@H](C)/C=C(\C)[C@@H](O)[C@@H](OC)C(=O)[C@H](C)C[C@H](C)/C=C/C=C/C=C/1C` [Ridaforolimus (Deforolimus, MK-8669)] stands 0.0229; under `CCN(CCCc1ccccc1)CCCc1ccccc1` [Alverine Citrate], 0.398.
Regarding `CCN(CC)CCNC(=O)c1c(C)[nH]c(/C=C2\C(=O)Nc3ccc(F)cc32)c1C` [Sunitinib], the relative cell viability amounted to 0.00707.
Under `C=CCc1ccc(O)c(-c2cc(CC=C)ccc2O)c1` [Magnolol] stands 0.00494.
On to `CN(C)Cc1c(C(=O)NCCOc2ccc(C(=O)NO)cc2)oc2ccccc12`, for which the relative cell viability turned out to be 0.024.
Compound `COC(=O)N[C@H](C(=O)N1CCC[C@H]1c1ncc(-c2ccc(-c3ccc(-c4cnc([C@@H]5CCCN5C(=O)[C@@H](NC(=O)OC)C(C)C)[nH]4)cc3)cc2)[nH]1)C(C)C` came in with a relative cell viability of 0.0709.
In turn, `CC(=O)c1cc2c(o1)C(=O)c1ccccc1C2=O` [Napabucasin] had a relative cell viability of 0.00758.
In the case of `OC1(c2ccc(Cl)c(C(F)(F)F)c2)CCN(CCCC(c2ccc(F)cc2)c2ccc(F)cc2)CC1` [Penfluridol], the relative cell viability came to 0.00434.
As for `N=C(NCCCCCCNC(=N)NC(=N)Nc1ccc(Cl)cc1)NC(=N)Nc1ccc(Cl)cc1` [Chlorhexidine digluconate], the relative cell viability was 0.0484.
`C=C[C@](C)(O)CC[C@@H]1[C@@]2(C)CCCC(C)(C)[C@@H]2CC[C@@]1(C)O` [Sclareol] yielded a relative cell viability of 0.00569.
For the compound `Clc1ccc(COC(Cn2ccnc2)c2ccc(Cl)cc2Cl)cc1` (stereo not drawn) [Econazole nitrate], the relative cell viability amounted to 0.00434.
Compound `CCCCCCCCCCCC1=C(O)C(=O)C=C(O)C1=O` [Embelin] had a relative cell viability of 0.00497.
In turn, `O=C(/C=C/c1cccc(S(=O)(=O)Nc2ccccc2)c1)NO` [Belinostat (PXD101)] returned a relative cell viability of 0.0185.
`CCCCCCCCCCCCCCCC[N+](C)(C)C` [Cetrimonium Bromide (CTAB)] had a relative cell viability of 0.00465.
`CC(C)OC(=O)CCC/C=C\C[C@@H]1[C@@H](CC[C@@H](O)CCc2ccccc2)[C@H](O)C[C@@H]1O` [Latanoprost] registered a relative cell viability of 0.00421.
The compound `CN(C)CCN1C(=O)c2cccc3cc(N)cc(c23)C1=O` [Amonafide] showed a relative cell viability of 0.0111.
For `C=C1C(=O)O[C@H]2[C@H]1CC/C(C)=C/CC[C@@]1(C)O[C@@H]21` [Parthenolide], the relative cell viability amounted to 0.00761.
In turn, `O=C(O)c1ccc2c(c1)nc(Nc1cccc(Cl)c1)c1ccncc12` [CX-4945 (Silmitasertib)] showed a relative cell viability of 0.355.
In the case of `CC1=C(C(=O)OC(C)C)C(c2cccc([N+](=O)[O-])c2)C(C(=O)OC2CN(C(c3ccccc3)c3ccccc3)C2)=C(N)N1` (stereo not drawn) [Azelnidipine], the relative cell viability came to 0.00845.
Then `Cc1cc(C)c2c(c1)[C@@H](N(Cc1cc(C(F)(F)F)cc(C(F)(F)F)c1)c1nnn(C)n1)CCCN2C[C@H]1CC[C@H](C(=O)O)CC1`, with 0.00343; and `CC(=O)O[C@H]1C(=O)[C@@]2(C)[C@H]([C@H](OC(=O)c3ccccc3)[C@]3(O)C[C@H](OC(=O)[C@H](O)[C@@H](NC(=O)c4ccccc4)c4ccccc4)C(C)=C1C3(C)C)[C@]1(OC(C)=O)CO[C@@H]1C[C@@H]2O` [Paclitaxel (Taxol)], with 0.0337.
For `CCOc1ccc2nc3cc(N)ccc3c(N)c2c1` [Ethacridine lactate monohydrate], the relative cell viability was found to be 0.0398.
As for `CN1CCC(=C2c3ccccc3C=Cc3ccccc32)CC1` [Cyproheptadine hydrochloride], the relative cell viability was 0.00509.
Under `Cc1c(OCC(F)(F)F)ccnc1C[S@@+]([O-])c1nc2ccccc2[nH]1` [Dexlansoprazole] stands 0.477.
As to `CN[C@H]1CC[C@@H](c2ccc(Cl)c(Cl)c2)c2ccccc21` [Sertraline HCl], the relative cell viability is 0.00569.
In turn, `CN(C)CCOc1ccc(/C(=C(/CCCl)c2ccccc2)c2ccccc2)cc1` [Toremifene Citrate] returned a relative cell viability of 0.018.
